Results as given in a compilation of properties of binary mixtures (doi:10.1016/j.molliq.2021.118292).
The densities may have been worked out from excess volumes.

Experiment: xn = mol fraction of the nth substance listed
Conditions: 298.15 K, 101 kPa

CC(=O)[O-].CCCC[n+]1ccn(C)c1 + CC(C)=O
Conditions | mass density [kg/m3]
x2 = 0 | 1050.8
x2 = 0.2024 | 1031.8
x2 = 0.3155 | 1018.3
x2 = 0.49 | 989.9
x2 = 0.5915 | 968.5
x2 = 0.689 | 942.1
x2 = 0.8036 | 901
x2 = 0.8357 | 886.8

CC(C)=O + CC(=O)[O-].CCCC[n+]1ccn(C)c1
Conditions | mass density [kg/m3]
x1 = 1 | 784.8

CC[n+]1ccn(C)c1.N#C[S-] + CC(C)=O
Conditions | mass density [kg/m3]
x2 = 0 | 1115.1
x2 = 0.1125 | 1102
x2 = 0.1889 | 1089.9
x2 = 0.3058 | 1072.2
x2 = 0.3917 | 1055.8
x2 = 0.5127 | 1028
x2 = 0.6 | 1003.1
x2 = 0.6892 | 972.5
x2 = 0.7842 | 930.7
x2 = 0.9008 | 864.2

CC(=O)[O-].CC[n+]1ccn(C)c1 + O
Conditions | mass density [kg/m3]
x2 = 0 | 1099
x2 = 0.1306 | 1100.6
x2 = 0.2326 | 1101.8
x2 = 0.2865 | 1103.6
x2 = 0.3671 | 1104.9
x2 = 0.4047 | 1105.5
x2 = 0.4896 | 1106.8
x2 = 0.5258 | 1107.2
x2 = 0.5507 | 1107.6
x2 = 0.7151 | 1105.7
x2 = 0.7317 | 1105.5
x2 = 0.8099 | 1098.6
x2 = 0.9053 | 1071.8

CC(C)=O + CC[n+]1ccn(C)c1.N#C[S-]
Conditions | mass density [kg/m3]
x1 = 1 | 784.8
